Whole data set: some 81,000 sequences, median “one-hybrid fitness for binding NBS DNA” near -0.1, cut for the highest 2% near 0.36. The list shows a part of the results.
B1: Caulobacter ParB omega fusion; a variant is named by its letters at X, in order, B8GW30 (parent)
chain: MESVVVGEPGMSEGRRGLGRGLSALLGEVDAAPAQAPGEQLGGSREAPIEILQRNPDQPRRTFREEDLEDLSNSIREKGVLQPILVRPSPDTAGEYQIVAGERAWRAAQRAGLKTVPIMVRELDDLAVLEIGIIENVQRADLNVLEEALSYKVLMEKFERTQENIAQTIGKSXSHVANXMRLLXLPDEVQSYLVSGELTAXHARAIAAAADPVALAKQIIEGGLSVRETEALARKAPNLSAGKSKGGRPPRVKDTDTQALESDLSSVLGLDVSIDHRGSTGTLTITYATLEQLDDLCNRLTRGI

Variants of: B1
Assay: one-hybrid fitness for binding NBS DNA (the Noc-binding site; scaled: cognate 1, non-cognate 0); higher = stronger binding
Settings: with NBS DNA site
How it was run: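 On M9-minus-histidine containing 0.1 mM IPTG and 5 mM 3-AT, E. coli USO cells with a HIS3 reporter, site 19 bp from the promoter, grew 48 hours at 37°C to select Caulobacter ParB libraries randomised at four specificity codons. Plasmids from before and after were Illumina-sequenced, with three replicate libraries pooled and variants under 10 reads left out. Fitness is the log change in variant-to-wild-type read ratio, rescaled against cognate and non-cognate.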

| Variant | one-hybrid fitness for binding NBS DNA |
| --- | --- |
| DPTT | ≤ 0.2 |
| KHRN | ≤ 0.2 |
| HRLL | ≤ 0.2 |
| EHAR | ≤ 0.2 |
| GHWS | ≤ 0.2 |
| VANI | ≤ 0.2 |
| HDGM | ≤ 0.2 |
| TCTK | ≤ 0.2 |
| IVEG | ≤ 0.2 |
| MSHL | ≤ 0.2 |
| PRVK | ≤ 0.2 |
| SLWR | ≤ 0.2 |
| HMCT | ≤ 0.2 |
| SLRN | ≤ 0.2 |
| LKFV | ≤ 0.2 |
| CYNS | ≤ 0.2 |
| HDCW | ≤ 0.2 |
| ALGW | ≤ 0.2 |
| LCMK | ≤ 0.2 |
| RCYM | ≤ 0.2 |
| ALNA | ≤ 0.2 |
| SVEC | ≤ 0.2 |
| VTLG | ≤ 0.2 |
| WRTA | ≤ 0.2 |

| Variant | one-hybrid fitness for binding NBS DNA |
| --- | --- |
| MTST | ≤ 0.2 |
| WNTE | ≤ 0.2 |
| GEGP | ≤ 0.2 |
| RTVW | ≤ 0.2 |
| PCFR | ≤ 0.2 |
| QAQD | ≤ 0.2 |
| LKYG | ≤ 0.2 |
| IHQD | ≤ 0.2 |
| HMLG | ≤ 0.2 |
| KVFF | ≤ 0.2 |
| NREL | ≤ 0.2 |
| LIHR | ≤ 0.2 |
| QPGC | ≤ 0.2 |
| PVSF | ≤ 0.2 |
| KRKI | 0.213 |
| WSCG | ≤ 0.2 |
| GRKN | ≤ 0.2 |
| DIIC | ≤ 0.2 |
| PCEF | ≤ 0.2 |
| DVRS | ≤ 0.2 |
| EFSM | ≤ 0.2 |
| GVPT | ≤ 0.2 |
| FTQM | ≤ 0.2 |
| YTPA | ≤ 0.2 |

| Variant | one-hybrid fitness for binding NBS DNA |
| --- | --- |
| RCHQ | ≤ 0.2 |
| LMWW | ≤ 0.2 |
| LRYW | ≤ 0.2 |
| LRDI | ≤ 0.2 |
| NSMR | ≤ 0.2 |
| DLME | ≤ 0.2 |
| LKRC | ≤ 0.2 |
| VTAK | ≤ 0.2 |
| FQNT | ≤ 0.2 |
| QDKK | ≤ 0.2 |
| FRRS | ≤ 0.2 |
| QHEK | ≤ 0.2 |
| DVCG | ≤ 0.2 |
| EPNR | ≤ 0.2 |
| SRQN | ≤ 0.2 |
| MHKR | 0.206 |
| KQPS | ≤ 0.2 |
| CNVL | ≤ 0.2 |
| SHCD | ≤ 0.2 |
| IGRL | ≤ 0.2 |
| RFQR | 0.282 |
| SQTA | ≤ 0.2 |
| QMII | ≤ 0.2 |
| GFRP | ≤ 0.2 |

| Variant | one-hybrid fitness for binding NBS DNA |
| --- | --- |
| FNPS | ≤ 0.2 |
| HYVT | ≤ 0.2 |
| LTIG | ≤ 0.2 |
| KNHC | ≤ 0.2 |
| HTLP | ≤ 0.2 |
| ILVA | ≤ 0.2 |
| ALEC | ≤ 0.2 |
| RVMP | ≤ 0.2 |
| KQCW | ≤ 0.2 |
| GPKK | ≤ 0.2 |
| ALKD | ≤ 0.2 |
| WSES | ≤ 0.2 |
| MVMT | ≤ 0.2 |
| YAGT | ≤ 0.2 |
| SIKT | ≤ 0.2 |
| PNNT | ≤ 0.2 |
| SNQL | ≤ 0.2 |
| QTRA | 0.712 |
| DGVG | ≤ 0.2 |
| EVTS | ≤ 0.2 |
| CYAL | ≤ 0.2 |
| ISFY | ≤ 0.2 |
| IVGG | ≤ 0.2 |
| SDHE | ≤ 0.2 |

| Variant | one-hybrid fitness for binding NBS DNA |
| --- | --- |
| REYG | ≤ 0.2 |
| LCMM | ≤ 0.2 |
| TPMQ | ≤ 0.2 |
| VRQC | ≤ 0.2 |
| SLHQ | ≤ 0.2 |
| SSPF | ≤ 0.2 |
| LREC | ≤ 0.2 |
| RLDV | ≤ 0.2 |
| ILFR | ≤ 0.2 |
| EVRE | ≤ 0.2 |
| NRHS | ≤ 0.2 |
| ERNL | ≤ 0.2 |
| NTRD | ≤ 0.2 |
| PIDK | ≤ 0.2 |
| GAAC | ≤ 0.2 |
| KKWS | ≤ 0.2 |
| SALT | ≤ 0.2 |
| NCFW | ≤ 0.2 |
| EQGG | ≤ 0.2 |
| MEKM | ≤ 0.2 |
| VDGK | ≤ 0.2 |
| RYYT | 0.349 |
| QKNH | 0.286 |
| QDIV | ≤ 0.2 |

| Variant | one-hybrid fitness for binding NBS DNA |
| --- | --- |
| HRNH | ≤ 0.2 |
| CVDS | ≤ 0.2 |
| FSKS | ≤ 0.2 |
| TRRA | 0.25 |
| SIKY | ≤ 0.2 |
| NAAD | ≤ 0.2 |
| VNCG | ≤ 0.2 |
| KRCS | 0.387 |
| RFGY | ≤ 0.2 |
| WPRA | ≤ 0.2 |
| PPHW | ≤ 0.2 |
| VHNM | ≤ 0.2 |
| QVWS | ≤ 0.2 |
| LYNL | ≤ 0.2 |
| TQHH | ≤ 0.2 |
| MVPK | ≤ 0.2 |
| LEAS | ≤ 0.2 |
| HTMF | ≤ 0.2 |
| SNMC | ≤ 0.2 |
| YGCT | ≤ 0.2 |
| EPRI | ≤ 0.2 |
| HRHY | ≤ 0.2 |
| PILL | ≤ 0.2 |
| GYKT | ≤ 0.2 |

| Variant | one-hybrid fitness for binding NBS DNA |
| --- | --- |
| GPSV | ≤ 0.2 |
| SKME | ≤ 0.2 |
| RDKV | ≤ 0.2 |
| NASH | ≤ 0.2 |
| SSAA | ≤ 0.2 |
| HSPF | ≤ 0.2 |
| CFIV | ≤ 0.2 |
| VYTG | ≤ 0.2 |
| PVLV | ≤ 0.2 |
| NVDA | ≤ 0.2 |
| GQAL | ≤ 0.2 |
| TICR | ≤ 0.2 |
| AEHI | ≤ 0.2 |
| ERTC | ≤ 0.2 |
| YPMR | ≤ 0.2 |
| MMAR | ≤ 0.2 |
| QVRL | ≤ 0.2 |
| ATML | ≤ 0.2 |
| DHRM | ≤ 0.2 |
| TEWR | ≤ 0.2 |
| NPHG | ≤ 0.2 |
| DGWC | ≤ 0.2 |
| PILC | ≤ 0.2 |
| RAGE | ≤ 0.2 |

| Variant | one-hybrid fitness for binding NBS DNA |
| --- | --- |
| RRAM | 0.306 |
| SCQG | ≤ 0.2 |
| ARPM | ≤ 0.2 |
| MTNS | ≤ 0.2 |
| QAHM | ≤ 0.2 |
| TWIC | ≤ 0.2 |
| YSKK | ≤ 0.2 |
| KIRV | ≤ 0.2 |
| KTTM | ≤ 0.2 |
| AVLS | ≤ 0.2 |
| KACL | ≤ 0.2 |
| FTDF | ≤ 0.2 |
| QPIE | ≤ 0.2 |
| SWVG | ≤ 0.2 |
| LQDT | ≤ 0.2 |
| QSID | ≤ 0.2 |
| MRLI | ≤ 0.2 |
| PCTH | ≤ 0.2 |
| NSHC | ≤ 0.2 |
| ITPG | ≤ 0.2 |
| HTAR | ≤ 0.2 |
| VLYG | ≤ 0.2 |
| QNPW | ≤ 0.2 |
| ATWW | ≤ 0.2 |

| Variant | one-hybrid fitness for binding NBS DNA |
| --- | --- |
| QGEL | ≤ 0.2 |
| DPST | ≤ 0.2 |
| RHSD | ≤ 0.2 |
| HCNC | ≤ 0.2 |
| HGAT | ≤ 0.2 |
| LART | ≤ 0.2 |
| VWTD | ≤ 0.2 |
| NLIL | ≤ 0.2 |
| CMRV | ≤ 0.2 |
| AKTD | ≤ 0.2 |
| CWKV | ≤ 0.2 |
| SIRY | ≤ 0.2 |
| ACRD | ≤ 0.2 |
| QKLT | 0.464 |
| SEPW | ≤ 0.2 |
| GLKR | ≤ 0.2 |
| RFIG | ≤ 0.2 |
| WSGS | ≤ 0.2 |
| HTRE | ≤ 0.2 |
| RRYY | 0.349 |
| WRKT | ≤ 0.2 |
| ANHF | ≤ 0.2 |
| VVNS | ≤ 0.2 |
| RSVE | ≤ 0.2 |

| Variant | one-hybrid fitness for binding NBS DNA |
| --- | --- |
| RQRF | ≤ 0.2 |
| VTKC | ≤ 0.2 |
| PKTG | ≤ 0.2 |
| CMCY | ≤ 0.2 |
| VEHD | ≤ 0.2 |
| RLKS | 0.554 |
| AFGT | ≤ 0.2 |
| YCLL | ≤ 0.2 |
| LRPN | ≤ 0.2 |
| WEGR | ≤ 0.2 |
| VLDL | ≤ 0.2 |
| SKKA | ≤ 0.2 |
| PMII | ≤ 0.2 |
| TFQR | ≤ 0.2 |
| MNVS | ≤ 0.2 |
| HDLW | ≤ 0.2 |
| TSSM | ≤ 0.2 |
| PAVN | ≤ 0.2 |
| SKHC | ≤ 0.2 |
| RSEQ | ≤ 0.2 |
| GYKF | ≤ 0.2 |
| NIGI | ≤ 0.2 |
| KMIR | ≤ 0.2 |
| AAAC | ≤ 0.2 |

| Variant | one-hybrid fitness for binding NBS DNA |
| --- | --- |
| DNFS | ≤ 0.2 |
| RLSD | ≤ 0.2 |
| HHIA | ≤ 0.2 |
| PRRD | ≤ 0.2 |
| TVCM | ≤ 0.2 |
| KNMC | ≤ 0.2 |
| RFMV | ≤ 0.2 |
| FPIG | ≤ 0.2 |
| EKVR | ≤ 0.2 |
| QAAS | 0.304 |
| SFHG | ≤ 0.2 |
| IGNF | ≤ 0.2 |
| ILDY | ≤ 0.2 |
| NRFG | ≤ 0.2 |
| PDCY | ≤ 0.2 |
| QWCR | 0.208 |
| AACF | ≤ 0.2 |
| QQRE | 0.332 |
| TLQC | ≤ 0.2 |
| VFPI | ≤ 0.2 |
| PATR | ≤ 0.2 |
| AMAL | ≤ 0.2 |
| RTSI | ≤ 0.2 |
| KRHV | ≤ 0.2 |

| Variant | one-hybrid fitness for binding NBS DNA |
| --- | --- |
| TIHL | ≤ 0.2 |
| FAPF | ≤ 0.2 |
| NNVR | ≤ 0.2 |
| SSVQ | ≤ 0.2 |
| DQDV | ≤ 0.2 |
| DTNN | ≤ 0.2 |
| WAAC | ≤ 0.2 |
| QSQM | ≤ 0.2 |
| NKVV | ≤ 0.2 |
| FQLM | ≤ 0.2 |
| NGMT | ≤ 0.2 |
| QPKC | ≤ 0.2 |
| TMVV | ≤ 0.2 |
| NAVL | ≤ 0.2 |
| CITK | ≤ 0.2 |
| PWTK | ≤ 0.2 |
| EFLG | ≤ 0.2 |
| QTQM | 0.22 |
| VGQS | ≤ 0.2 |
| LGCR | ≤ 0.2 |
| SWLK | ≤ 0.2 |
| QLHH | ≤ 0.2 |
| KIPM | ≤ 0.2 |
| KTNC | ≤ 0.2 |

| Variant | one-hybrid fitness for binding NBS DNA |
| --- | --- |
| TYMG | ≤ 0.2 |
| RVML | ≤ 0.2 |
| NAPG | ≤ 0.2 |
| DIWC | ≤ 0.2 |
| SPKD | ≤ 0.2 |
| PKDL | ≤ 0.2 |
| QRYQ | 0.35 |
| NMNT | ≤ 0.2 |
| MSER | ≤ 0.2 |
| PHVT | ≤ 0.2 |
| GADS | ≤ 0.2 |
| YELE | ≤ 0.2 |
| TPYS | ≤ 0.2 |
| EGQW | ≤ 0.2 |
| WNVY | ≤ 0.2 |
| LVER | ≤ 0.2 |
| KLVT | ≤ 0.2 |
| ASDT | ≤ 0.2 |
